# Among all 46,000 compounds or so, about 60 (0.1%) were called active. About 3% were inconclusive and are not listed. The call rests on the fitted dose curve; in most records, active means well fitted inhibition curve with a large enough effect; inconclusive means small, poorly fitted or top-dose-only effect; inactive means no such curve, though single readings can be large or run the other way. Some of the results follow.
# Experiment: Primary qHTS assay for Inhibitors of ovarian cancer metastasis using an organotypic tumor microenvironment (TME) model. Further: nearly all actives have a fitted effect of over 65% in size.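 On activity change, negative = inhibition: plate controls were DMSO wells for no effect and tomatine positive control wells for full effect.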
# Conditions: SKOV3ip1-GFP adhesion/invasion on 3D omental model, fluorescence; series mostly up to 45.8 µM; activity change, negative = inhibition: at the top concentration
# How it was run: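 qHTS, 4-pt dose (0.36-46 umol/L); SKOV3ip1-GFP, 1,200 cells/well, no FBS; primary omental fibroblast/mesothelial co-culture 48 h pre-grown; 2 h RT + 16 h 37 C; PBS wash, 4% PFA; GFP count 488/509 nm.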
Structure (SMILES),"activity change, negative = inhibition",outcome
COc1ccccc1N1CCN(c2csc3ccccc3c2=O)CC1,inactive: 2.21%,
COc1cccc(NC(=O)Cn2c(-c3nonc3N)nc3ccccc32)c1,inactive: -4.04%,
Cc1cccc(NC(=O)N2CCN3CCCCC3C2)c1C (centres undefined),inactive: 0.767%,
COc1cc(NC(=O)CCS(=O)(=O)c2ccc3c(c2)n(C)c(=O)c(=O)n3C)cc(OC)c1,inactive: -9.32%,
O=C(Nc1cc(Cl)ccc1Cl)c1cc(S(=O)(=O)N2CCc3ccccc3C2)ccc1F,inactive: 1.02%,
CCc1ccc(NC(=O)C2CCCN(c3nnc(C)c4c(C)n(-c5ccccc5)nc34)C2)cc1 (centres undefined),inactive: 8.69%,
O=c1c(-c2cc(-c3ccccc3)nc3c2COc2ccccc2-3)coc2ccc(Cl)cc12,inactive: -16.1%,
COc1ccc(CNC(=O)C(=O)Nc2cccc(C)c2C)cc1,inactive: -4.95%,
COc1ccc2oc(-c3ccc(NC(=O)c4ccc(Cl)cc4Cl)cc3)nc2c1,inactive: -25.5%,
Cc1ccc(-n2ncc3c(N4CCN(c5ccc(F)cc5)CC4)ncnc32)cc1,inactive: -7.89%,
Cc1ccccc1N1CC(c2nc3ccccc3n2Cc2ccc(Br)cc2)CC1=O (centres undefined),inactive: -3.31%,
Cc1cc(Br)ccc1NC(=O)c1c(C)oc2ncnc(N3CCCCC3)c12,inactive: -4.89%,
COc1cc2nccc(Oc3ccc(NC(=O)Nc4ccc(F)cc4F)c(F)c3)c2cc1OC,inactive: -20%,
Cc1cc(NC(=O)c2cc(-c3ccc(Cl)c(Cl)c3)on2)n(-c2ccccc2)n1,inactive: 0.693%,
CCOc1ccc(CNC(=O)C2CCN(C(=O)N3CC(CC)Oc4ccc(C)cc43)CC2)cc1OC (centres undefined),inactive: -13.1%,
COc1ccccc1NC(=O)Cn1c(=O)n(CC2CCC(C(=O)NCCc3ccccc3)CC2)c(=O)c2ccccc21 (centres undefined),inactive: 3.52%,
CCOC(=O)CSc1nc2sc3c(c2c(=O)n1-c1ccc(OC)cc1)CC(C(C)C)OC3 (centres undefined),,inactive
COC(=O)c1c(-c2cccs2)csc1NC(=O)c1ccc(C)cc1,,inactive
O=C(Cn1c(-c2cccs2)cc2ccccc21)N1CCN(c2ccc(F)cc2)CC1,inactive: 4.87%,
Cc1ccc(CNS(=O)(=O)c2ccc3c(c2)CC(C)N3C(=O)C2CCC2)cc1 (centres undefined),inactive: 9.94%,
COc1ccc(OC)c(C(=O)CN2C(=O)N(c3ccc(C)cc3)S(=O)(=O)c3ccccc32)c1,inactive: -9.51%,
CCOc1ccc(Sc2cc(C(=O)NCc3ccccc3Cl)c3ccccc3n2)cc1,,inactive
Cc1ccccc1NC(=O)CCn1nc(-c2ccccc2)c2ccccc2c1=O,inactive: -4.51%,
CCc1ccc(NC(=O)Cn2c(=O)n(CCCC(=O)NCCc3ccc(OC)c(OC)c3)c(=O)c3ccccc32)cc1,,inactive

Structure (SMILES),"activity change, negative = inhibition",outcome
Cc1nnc(SCC(=O)Nc2ccc(N(C)C)cc2)[nH]c1=O,inactive: -0.355%,
CCOC(=O)N1CCc2c(sc3c2C(=O)NC(c2ccc(C(=O)OC)cc2)N3)C1 (centres undefined),,inactive
CCN(CC)CCOC(=O)c1ccc(NC(=O)c2cc3cc(OC)ccc3oc2=O)cc1,inactive: 42.4%,
COCCNC(=O)CN1C(=O)COc2ccc(S(=O)(=O)N3CCCC3)cc21,inactive: -4.62%,
Cc1c(Cl)cccc1-n1nc(C)c2c(C)cc(=O)n(CC(=O)N3CCCc4ccccc43)c21,inactive: -4.76%,
CCOc1cc(C=C2C(=O)N(c3ccccc3)N=C2C)cc(Cl)c1OCC(=O)OC,inactive: 2.51%,
Cc1cnc(=O)[nH]c1SCC(=O)Nc1cc(C(F)(F)F)ccc1Cl,,inactive
CCOC(=O)c1ccc2c(c1)N(Cc1ccc(F)cc1Cl)C(=O)c1ccccc1S2,,inactive
Cc1ccc(CNC(=O)CCCN2C(=O)CCn3nc(-c4cccn4C)cc32)cc1,,inactive
COc1ccc(-c2nc3ccccc3n3c(-c4ccc(OC)cc4)c4c(=O)n(C)c(=O)n(C)c4c23)cc1,inactive: -3.96%,
CCCOc1ccc(CNC(=O)C2CCN(C(=O)c3sccc3-n3cccc3)CC2)cc1,inactive: 15.5%,
CCCNC(=O)C1CCN(c2nc3ccc(C)cc3[nH]2)CC1,,inactive
Cc1cc2oc3c(c(=O)c2cc1C)C(c1ccc(C(C)C)cc1)N(c1nc(C)c(C)s1)C3=O (centres undefined),inactive: -10.3%,
Cc1ccc(C)n1-c1nnc(N2CCCC(C(=O)NCc3cccc(Br)c3)C2)s1 (centres undefined),,inactive
COCCNC(=O)CSc1nc(-c2ccccc2)[nH]c1-c1ccc(C)cc1,inactive: 4.29%,
Cc1cccc(CN2CCN(CC(=O)Nc3c(C)cccc3C)S2(=O)=O)c1,inactive: -2.88%,
COc1cc(CNc2ccc3[nH]c(=O)[nH]c3c2)cc(Br)c1OCc1ccccc1F,inactive: -9.05%,
Cc1cccc(C(=O)Nc2ccc(N3CCC(N4CCCCC4)CC3)c(C(=O)O)c2)c1,inactive: -0.902%,
COc1cccc(NC(=O)N(Cc2cn(C)c3ccccc23)C2CCCCCC2)c1,,inactive
Cc1ccc(Cl)cc1NC(=O)CC1Sc2ccccc2NC1=O (centres undefined),inactive: -7.42%,
Cc1ccc(CNC(=O)CCc2c(C)nc3c4c(C)cc(C)nc4nn3c2C)cc1,,inactive
NC1=NC(c2cc(F)cc(F)c2)n2c(nc3ccccc32)N1 (centres undefined),inactive: -5.05%,
O=C(Nc1cccc(Cl)c1)C1CCN(S(=O)(=O)Cc2ccccc2)CC1,,inactive
Cc1cc(F)ccc1NC(=O)C1CCN(S(=O)(=O)c2ccc3c(c2)CCCC(=O)N3)CC1,,inactive

Structure (SMILES),"activity change, negative = inhibition",outcome
NC(=O)CSc1oc(-c2cccs2)nc1S(=O)(=O)c1ccc(Br)cc1,inactive: 4.86%,
CCCCOc1cccc(C(=O)N(Cc2ccc(Br)o2)C2CCS(=O)(=O)C2)c1 (centres undefined),,inactive
Cc1cccc(C(=O)Nc2ccc(C(=O)OCc3cc(=O)n4c(C)csc4n3)cc2)c1,inactive: -5.78%,
CC(C)c1cnc2c(c1SCC(=O)c1ccccc1)c(=O)n(C)c(=O)n2C,,inactive
COc1ccc(S(=O)(=O)NCC(c2ccco2)N2CCN(c3ccc(F)cc3)CC2)cc1 (centres undefined),inactive: -0.343%,
CC(C)(C)NC(=O)CSc1nc(-c2ccc(F)cc2)cc(C(F)(F)F)n1,,inactive
Cn1nc(-c2ccccc2F)c2cc(C(=O)Nc3cc(F)ccc3F)sc21,inactive: 14%,
O=C(c1cnc2c(c1)COc1ccccc1-2)c1ccccc1O,,inactive
Cc1ccccc1Cn1cc(CCC(=O)NCc2cccc(Br)c2)c2ccccc21,inactive: -6.52%,
COc1ccc(S(=O)(=O)N2CCN(c3ccccc3)CC2)cc1-c1noc(C)n1,,inactive
O=C(Cn1c(=O)c(C(F)(F)F)nc2ccccc21)Nc1ccc(Br)cc1F,,inactive
COC(=O)c1ccc(NC(=O)N2CCN(c3nnc(C)c4c(C)n(-c5ccccc5)nc34)CC2)cc1,inactive: 9.08%,
Cn1c(=O)n(C)c2cc(CNCc3ccccc3)ccc21,inactive: 15.5%,
COc1cc(NC(=O)c2ccc(-c3ccc(Cl)cc3)o2)cc(OC)c1,inactive: -4.46%,
Cc1cc(C)c(S(=O)(=O)Nc2cc(Cl)c3oc4c(c3c2)C(=O)CCC4)cc1C,inactive: -11.8%,
COc1ccc(Cc2nc3ccc(C(=O)NCCc4ccc(OC)c(OC)c4)cc3o2)cc1,inactive: -1.73%,
Cc1cc(C)cc(NC(c2nnc(-c3cccc(F)c3)o2)c2ccc(F)cc2Cl)c1 (centres undefined),inactive: 2.85%,
CCOC(=O)Cn1c(=O)n(C2CCCCC2)c2nc(-c3ccc(OC)cc3)nc(C(N)=O)c21,,inactive
Cc1ccc(CNC(=O)C(=O)NCC(c2ccco2)S(=O)(=O)c2ccc(C)cc2)cc1 (centres undefined),,inactive
Cc1ccc(Cn2c(=O)n(Cc3ccccc3)c(=O)c3c(C)c(C)sc32)cc1,,inactive
CCOc1ccc(C(=O)Nc2ccc(-c3nnc4n3CCCCC4)cc2)cc1OCC,inactive: 7.07%,
Cc1cccc2c(=O)cc(CSCC(=O)Nc3ccc(Cl)cc3)[nH]c12,,inactive
Cc1ccc(CNS(=O)(=O)c2cc(Br)cc3c2N(C(=O)C2CC2)CC3)cc1,inactive: -4.31%,
COc1ccc(Nc2nc(Nc3ccc(OC)cc3OC)nc(N3CCOCC3)n2)c(OC)c1,,inactive

Structure (SMILES),"activity change, negative = inhibition",outcome
Cc1ccc2oc(-c3cccc(NC(=O)c4ccc(N5CCC(C)CC5)c([N+](=O)[O-])c4)c3)nc2c1,inactive: -13.4%,
CCCCNC(=O)CN1C(=O)c2c(c3ccccc3n2C)C1c1ccc(OC)cc1 (centres undefined),inactive: -8.15%,
CC(C)(C)C(=O)Nc1nc2nc(-c3ccccc3)cc(=O)n2[nH]1,inactive: -13.4%,
Cc1ccc(S(=O)(=O)N2CCCc3cc(NS(=O)(=O)c4ccc(C)c(C)c4)ccc32)cc1,inactive: -9.51%,
C[C@]12C=CC(=O)C=C1CC[C@@H]1[C@@H]2C(=O)C[C@@]2(C)[C@H]1CC[C@]2(O)C(=O)CO,inactive: -10.9% [at 23.2 µM],
CC(=O)c1ccc(NC(=O)CSc2c(C(C)C)cnc3c2c(=O)n(C)c(=O)n3C)cc1,inactive: -4.23%,
COc1ccc(C2CC(=O)c3cc(-c4nc(-c5cccc([N+](=O)[O-])c5)cs4)c(=O)n(-c4ccc(F)cc4)c3C2)cc1 (centres undefined),inactive: 7.76%,
CCc1cccc(C)c1NC(=O)c1cc(S(=O)(=O)N2CCC3(CC2)OCCO3)ccc1F,,inactive
Cc1oc(-c2ccc(Cl)cc2)nc1CN1CCCC(C(=O)NCCc2ccccc2)C1 (centres undefined),inactive: 2.19%,
CCOc1ccc(CNCCSc2nnnn2C)cc1OC,inactive: -26.1%,
O=C(CS(=O)(=O)c1cccc2nsnc12)N1CCN(c2ccccc2)CC1,inactive: -3.11%,
COC(=O)c1ccn(-c2nc(-c3ccc(Cl)cc3)cc(C(F)(F)F)n2)n1,inactive: 9.46%,
c1ccc2c(Oc3nc(Nc4ccc(N5CCOCC5)cc4)c4ncn(C5CCCCC5)c4n3)cccc2c1,inactive: -11.3%,
COc1ccc(C2(N3CCN(c4cccc(C)c4C)CC3)C(=O)c3ccccc3C2=O)cc1,inactive: -4.69%,
Cc1c(-c2nnc(SCC(=O)Nc3ccc(Br)cc3)o2)nnn1-c1ccc(F)cc1,inactive: 7.04%,
O=C(Cn1c(=O)n(Cc2ccc(C(=O)NCc3ccc4c(c3)OCO4)cc2)c(=O)c2ccccc21)Nc1ccc(F)cc1F,inactive: -15.5%,
CCCCNC(=O)C1CCN(c2nc3ccc(C)cc3[nH]2)CC1,,inactive
CC(C)c1ccc(CN(Cc2ccco2)c2cnc(S(C)(=O)=O)nc2C(=O)Nc2ccccc2)cc1,inactive: 6.61%,
COC(=O)c1ccccc1NC(=O)c1cn2c3c(ccc(Cl)c3c1=O)OC(C)C2 (centres undefined),inactive: -10.7%,
Nc1ncnc2nc(-c3ccc(N4CCOCC4)nc3)cc(-c3cccc(Br)c3)c12,inactive: -0.797%,
COc1ccc(-c2nc(C)c(CCNS(=O)(=O)c3ccc(F)cc3)s2)cc1OC,,inactive
Cc1ccc(NC(=O)Nc2cn(CC(C)C)c(=O)c3ccccc23)cc1N(C)C,inactive: -6.21%,

# Reference: PubChem BioAssay AID1963576 (National Center for Advancing Translational Sciences (NCATS), 2024)
